Measurements reported in US20200231694A1, “PHARMACEUTICAL COMBINATIONS COMPRISING AN ANTI-BST-1 ANTIBODY AND A CYTIDINE ANALOGUE” (BERLIN-CHEMIE AG, priority 2017, published 2020).

Experiments:
A549 cells = experiment: MabZAP internalization assay, A549 cells; type: cell-based; conditions: compared to anti-human IgG isotype control
Procedure: (§1) Internalization of BST1_A1 and BST1_A2 by H226 and A549 were investigated using a MabZap assay. […] (Advanced Targeting System, San Diego, Calif., IT-22-100). First, BST1 Fab was bound to the surface of the cells. Then, the MabZAP antibodies were bound to the primary antibodies. Next, the MabZAP complex was internalized by the cells.
(§2) The MabZAP assay was conducted as follows. Each of the cells was seeded at a density of 5×10^3 cells per well. The anti-BST1 monoclonal antibody or an isotype control human IgG was serially diluted then added to the cells and incubated for 15 min at 25° C. The MabZAP was then added and incubated for 72 hr at 37° C. Cell viability in the plates was detected by CellTiter-Glo® Luminescent Cell Viability Assay kit (Promega, G7571) and the plates were read and analysed using Promega Glomax. Cell death was proportional to the concentration of anti-BST1 monoclonal antibodies.

[1] = test system: lymphoblasts from patients with AML; experiment: Flow cytometry binding to AML blasts from patients; parameters: species or system human; conditions: blood from 20 AML patients
Procedure: (§3) The specificity of antibodies against the BST1 selected in Example 2 was tested by flow cytometry. To test the ability of the antibodies to bind to the cell surface BST1 protein, the antibodies were incubated with the BST1-expressing cells, A549 and H226, from human lung adenocarcinoma and human lung squamous carcinoma, respectively. Cells were washed in FACS buffer (DPBS, 2% FBS), centrifuged and resuspended in 100 μl of the diluted primary BST1 antibody (also diluted in FACS buffer). The antibody-A549 complex was incubated on ice for 60 min and then washed twice with FACS buffer as described above. The cell-antibody pellet was resuspended in 100 μl of the diluted secondary antibody (also diluted in FACS buffer) and incubated on ice for 60 min on ice. The pellet was washed as before and resuspended in 200 μl FACS buffer. The samples were loaded onto the BD FACScanto II flow sytometer and the data analyzed using the BD FACSdiva software.
The ability of BST_A2 to bind to lymphoblasts from patients with AML was tested by Flow Cytometry Analysis. Blood was taken from 20 AML patients.

H226 cells = experiment: MabZAP internalization assay, H226 cells; type: cell-based; conditions: compared to anti-human IgG isotype control
Procedure: as §1, §2

[2] = biological target: T1, cell surface BST1 protein (Homo sapiens, UniProt Q10588); experiment: Flow cytometry binding of anti-BST1 antibodies to BST1-expressing cells; conditions: A549 and H226 cells
T1 construct: the antibodies were incubated with the BST1-expressing cells, A549 and H226, from human lung adenocarcinoma and human lung squamous carcinoma; endogenous in cells; host or cells: A549 (human lung adenocarcinoma) and H226 (human lung squamous carcinoma)
T1 sequence (Q10588 33-293): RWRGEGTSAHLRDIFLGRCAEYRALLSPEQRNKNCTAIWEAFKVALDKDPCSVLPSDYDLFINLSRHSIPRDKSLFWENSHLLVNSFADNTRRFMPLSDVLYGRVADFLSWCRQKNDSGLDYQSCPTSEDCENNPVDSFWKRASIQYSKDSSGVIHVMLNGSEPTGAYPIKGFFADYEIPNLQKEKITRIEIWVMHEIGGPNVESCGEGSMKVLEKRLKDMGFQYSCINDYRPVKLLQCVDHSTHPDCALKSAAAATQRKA
Procedure: as §3

[3] = test system: BST1-expressing U937 cells; experiment: Antibody-dependent cellular cytotoxicity (LDH release), U937 cells; type: cell-based; conditions: for eliciting ADCC: BST1-expressing U937 cells, with effector cells; for killing (ADCC): U937 cells, 1 nmol/L antibody
Procedure: (§4) Firstly 25 μl of parental and Non-Fucosylated anti-BST1 antibodies (BST1_A2 and BST1_A2 NF) at concentrations ranging from 10 nm/L to 0.1 nm/L were added to separate wells of a v bottom 96 well plate along with 50 μl of BST1-expressing A549 and U937 cells. 25 μl of Effector cells was then added to the wells to yield final effector: target (E:T) ratio of 10:1 and 25:1. The plate was then gently spun at 1000 rpm for 2 minutes, afterwhich it was incubated for 4 hrs in 37° C., 5% CO2 incubator. At 3 hrs post incubation, 10 μl of lysis solution was added to each of the wells containing BST1-expressing cells alone to measure maximum LDH release, and one set of wells containing media alone for volume correction control.
(§5) After the incubation, the cells were spun gently at 1000 rpm for 2 minutes, afterwhich 50 μl of supernatant was transferred to a flat bottom 96 well plate. Using the CytoTox 96® Non-Radioactive Cytotoxicity Assay available from Promega (Cat #: G1780), kit components were reconstituted according to manufacturer's specifications and 50 μl of the substrate mix was then added to each well. The plate was then covered and left to incubate for 30 minutes at 25° C. protected from light. Following this, 50 μl of Stop Solution was added to each well and the absorbance was recorded at 490 nm using the varioskan plate reader.

[4] = test system: BST1-expressing A549 cells; experiment: Antibody-dependent cellular cytotoxicity (LDH release), A549 cells; type: cell-based, human; conditions: for eliciting ADCC: BST1-expressing A549 cells, with effector cells
Procedure: as §4, §5

Molecule | internalization (MabZAP) (A549 cells) | AML patients whose AML blasts were bound [1] | internalization (MabZAP) (H226 cells) | binding to cell-surface human BST1 [2] | eliciting ADCC [3] | killing (ADCC) [3] | eliciting ADCC [4] | killing (ADCC) ([4]; A549 cells, 10 nmol/L antibody)
BST1_A2: anti-BST1 monoclonal antibody, VH SEQ ID NO: 2, VK SEQ ID NO: 4; heavy/light chain SEQ ID NOs: 74 and 76 (antibody, Humanized heavy chain; Humanized light chain) heavy: QVQLVQSGAEVKKPGASVKVSCKASGYSFIEYTINWVRQAPGQGLEWIGNIDPYYGTTYYNQMFTGRATLTVDTSISTAYMELSRLRSDDTAVYYCARGSAWFPYWGQGTLVTVSS[sequence of human IgG1 constant region not given] light: DIQMTQSPSSLSASVGDRVTITCSASSSVTYMYWYQQKPGKAPKLLIYDTSNLASGVPSRFSGSGSGTDYTLTISSLQPEDFATYYCQQWSNYPLTFGQGTKVEIKRTVAAPSVFIFPPSDEQLKSGTASVVCLLNNFYPREAKVQWKVDNALQSGNSQESVTEQDSKDSTYSLSSTLTLSKADYEKHKVYACEVTHQGLSSPVTKSFNRGEC | efficiently internalized | approx. 80% | efficiently internalized | bound effectively | capable of eliciting ADCC | approximately 20% | capable of eliciting ADCC | –
BST1_A2 NF: Non-Fucosylated anti-BST1 antibody derived from parental BST1_A2 (antibody) heavy: QVQLVQSGAEVKKPGASVKVSCKASGYSFIEYTINWVRQAPGQGLEWIGNIDPYYGTTYYNQMFTGRATLTVDTSISTAYMELSRLRSDDTAVYYCARGSAWFPYWGQGTLVTVSS[sequence of human IgG1 constant region not given] light: DIQMTQSPSSLSASVGDRVTITCSASSSVTYMYWYQQKPGKAPKLLIYDTSNLASGVPSRFSGSGSGTDYTLTISSLQPEDFATYYCQQWSNYPLTFGQGTKVEIKRTVAAPSVFIFPPSDEQLKSGTASVVCLLNNFYPREAKVQWKVDNALQSGNSQESVTEQDSKDSTYSLSSTLTLSKADYEKHKVYACEVTHQGLSSPVTKSFNRGEC | – | – | – | – | capable of eliciting ADCC | approximately 45% | capable of eliciting ADCC | approximately 45%
